# According to ChEMBL document CHEMBL4888484, “Replenishing the malaria drug discovery pipeline: Screening and hit evaluation of the MMV Hit Generation Library 1 (HGL1) against asexual blood stage Plasmodium falciparum ,using a nano luciferase reporter read-out” (2022):
# In all, about 150,000 compounds went through this assay and about 540 (0.36%) showed an effect of 50% or more. The list shows a part of the results.
# System: Plasmodium falciparum
# Assay: Primary screen in NF54 nanoGlo assay, in single point, at 2uM, 72h; a lower Z score goes with more inhibition
# Type: functional, Erythrocyte
# Conditions: timepoint 72 hour
Compound,% Inhibition [%],Z score
CCc1ccc(CN2CCCC[C@@H]2CCC(=O)O)nc1,-5,0.87
COc1ccccc1-c1[nH]c2[nH]c(=O)[nH]c(=O)c2c1[C@H]1C(=O)N(C)c2ccccc21,1,-0.1
CN(CC(=O)N1CCCCC1)Cc1ncon1,3,-0.62
CCN(C(=O)c1oc(C)nc1C)c1ccccc1S(=O)(=O)CC,4,-0.63
COCCN(C)CCNC(=O)C(=O)c1ccc(Br)cc1,-8,0.81
O=C1NC(c2cccc(Cl)c2Cl)C(C(=O)c2cccnc2)C(O)(C(F)(F)F)N1 (stereo not given),26,-2.92
CC[C@@H](c1ccccn1)n1cc(-c2cc(CN(C)C)cs2)nn1,-6,0.72
Cc1ccc(CNc2nnc(N3CCOCC3)c3ccccc23)cc1,-15,1.34
CC(C)Cc1nc2cc(NS(=O)(=O)N(C)C)cc(C(=O)N3CCN(c4ccccc4)CC3)c2n1C,-11,1.47
CCc1c(C(=O)N(C)Cc2ccon2)cnn1C(C)(C)C,-2,0.33
Cc1ccc(C(CNC(=O)N2CC3CCC2C3)N2CCCC2)o1 (stereo not given),26,-2.99
CC(C)(C)c1coc(CNC(=O)c2cnn3c2OCCC3)n1,-6,1.16
CCO[C@@H](C)C(=O)NS(=O)(=O)c1ccc2c(c1)OCCCO2,-25,2.92
CO[C@H]1CN(C(C)C)C[C@@H]1NS(=O)(=O)NCc1ccccc1,-6,0.87
O=C(NC1CCC2OCCOC2C1)c1ccsc1 (stereo not given),-5,1.01
CC(C)[C@H](NC(=O)c1ccco1)C(=O)NCc1nnc2ccccn12,-8,1.59
Cc1ccn2c(O)c(C(=O)NC[C@H](C)O)c(=O)nc2c1,3,-0.44
Nc1ccc(S(=O)(=O)Nc2nc3ccccc3o2)cc1,-19,3.61
COCC1(S(=O)(=O)N2CCOC[C@H]2c2nc(-c3cccs3)no2)CC1,-12,1.57
Cc1nnsc1C(=O)N[C@@H](C)Cc1ccoc1,3,-0.45
COCCNC(=O)N1CCC(Oc2cnc3ccccc3n2)CC1,-18,3.48
CCC[C@H](C)NS(=O)(=O)c1cc(OC)ccc1OC,-11,1.35

Compound,% Inhibition [%],Z score
CCC1CN(C(=O)c2ccc(S(N)(=O)=O)c(C)c2)C1,-5,0.96
CCOc1ncc(C(=O)N(C)c2ccc(Cl)cn2)cc1Cl,-10,1.14
CN(C)c1ccc(C(=O)NC[C@H]2O[C@@H](CO)[C@@H](O)[C@H]2N(C)CCc2ccccc2)cc1,31,-3.52
Cc1cc(=O)n2nc(C)c(-c3cccc4ccccc34)c2[nH]1,-10,1.64
COCC1(CNC(=O)NCC(=O)N2Cc3ccccc3C2)CCC1,-1,0.1
CC(C)c1nn(C)c(Cl)c1C(=O)N[C@H](C)C(=O)O,-15,2.41
O=C(NC1CCCC1)c1c(O)c2cccc3c2n(c1=O)CCC3,5,-0.6
Cc1ccc(N(Cc2cccs2)C(=O)c2cccs2)cc1Cl,49,-5.61
Cc1nnc(CN(C)C(=O)COCc2nc3c(C)cccc3[nH]2)o1,1,-0.14
CCN(CC(C)(C)O)S(=O)(=O)c1ccc(F)cc1Br,-7,0.91
Cc1cnc(C(C)N2CCCC(N3CCCC3)C2)o1 (stereo not given),-3,0.26
COc1ccc(C2CN(S(=O)(=O)c3ccccc3)CC2C(=O)NCC(C)C)c(OC)c1 (stereo not given),-4,0.77
COc1ccc([C@H]2OCC[C@@H]2NC(=O)Nc2ccn(-c3ccc(F)cn3)n2)cn1,2,-0.28
COC(C)(C)CC(C)NC(=O)N(C)C(C)c1ccco1 (stereo not given),10,-1.39
CCOC(=O)N1CCN(C(=O)CN2C(=O)NC3(CCCCC3C)C2=O)CC1 (stereo not given),-3,0.36
N#Cc1ccccc1COc1cccc(C(=O)NC2(C#N)CCCC2)c1,1,-0.06
O=C(NCc1nnc2n1CCOC2)NC[C@@H]1C[C@H](c2ccccc2)CO1,-1,0.14
CC(C)S(=O)(=O)CC(=O)N1C2CCC1CC(CC(F)(F)F)C2 (stereo not given),6,-1.23
Cc1nc2c(C)cccc2cc1C(=O)N1CCC(Cc2nncn2C)CC1,4,-0.78
C[C@H](NC(=O)c1ccc2scnc2c1)C1=CCCCC1,3,-0.57
O=C(CNC(=O)c1cnccn1)NCCc1c[nH]c2ccc(F)cc12,-5,0.67
CCc1csc(-n2cc(C(=O)N3[C@H](C)CCC[C@@H]3C)cn2)n1,-19,2.04

Compound,% Inhibition [%],Z score
COc1ccc(C(=O)NC2CC2)cc1OC1CCN(Cc2ccc(F)cc2F)CC1,-8,1.57
CN1CCCN(C)C2(CCN(C(=O)c3ccc(F)c(Cl)c3)CC2)C1,-21,2.62
Cn1ccc(C(NC(=O)N2CCC(F)(CO)C2)c2ccc(Cl)cc2)n1 (stereo not given),-6,1.07
COC[C@H]1CN(C(=O)c2cccnc2Nc2ccccc2F)CCO1,-13,1.65
Cc1ccc(NC(=O)CC(C)(C)C)nc1,-16,1.43
Cn1nccc1S(=O)(=O)N1CCC[C@H](CC(N)=O)CC1,-3,0.39
CCCNC(=O)c1ccc(-c2c(-c3ccc(C)cc3)ncn2C2CCCCC2)o1,-2,0.32
NC(=O)C1CCN(c2nc3nccc(-c4cccc5ccccc45)c3c(=O)[nH]2)CC1,-3,0.45
CC(=O)N1CCn2c(nnc2[C@@H]2CCCN2Cc2ccc(F)cc2F)C1,-12,1.72
CCCn1ncc(CN2CCC3(CC2)C[C@@H](c2ccccc2)C(=O)N(C)C3)c1C,-5,0.78
COCC(COC)NC(=O)N1CCC2(C=Cc3ccccc3O2)CC1,-3,0.45
Cc1nnc(CN2CCC[C@H](CNC(=O)c3ccoc3)C2)s1,-7,1.39
CN(Cc1ncc[nH]1)c1nccn(C)c1=O,15,-1.95
O=C(NCC1(CO)CC1)C1CCCCC1c1nc2ccccc2s1 (stereo not given),-13,2.48
CCN1CC[C@H]2OCCN(CC(C)=Cc3ccccc3)[C@H]2C1,-8,1.59
COc1ccc(S(=O)(=O)Nc2ccccc2C(=O)NCc2ccco2)cc1,3,-0.38
Cn1c(CN2CCC(O)CC2)nnc1[C@H]1CCCN(c2nccs2)C1,-1,0.13
O=C(NCCc1cccs1)c1cc(Cc2cccc3ccccc23)no1,19,-2.46
O=C(CN1CCN(c2ccccc2F)C1=O)Nc1nccs1,-5,0.59
CCC(=O)N1CCc2ccc(OCc3ccc(C(=O)NCC4CC4)o3)cc2[C@@H]1c1ccc(F)cc1,-9,1.09
CCC[C@@]1(C2CCNCC2)NC(=O)N(CCc2ccc(C#N)cc2)C1=O,13,-1.65
COc1ccc(C2=C(C)C(N3CCN(Cc4ccc5c(c4)OCO5)CC3)=NS2(=O)=O)cc1,-15,2.24

Compound,% Inhibition [%],Z score
O=C(c1sccc1Cl)N1CC2(CCC2)[C@@H]1C1CCOCC1,-2,0.42
CCCN(CCC)S(=O)(=O)NCCc1nc2c(s1)COCC2,-16,2.44
COCCC(=O)Nc1ncnn1C(C)(C)C,-6,0.67
COc1ncccc1CNC(=O)c1ccnc(OC2CCOCC2)c1,-8,1.44
O=C1NC(=O)[C@H](CCC(=O)N2CCN(C(=O)c3ccccc3)CC2)N1,-21,4
Cc1cccc(OC[C@]2(CNC(=O)c3ccc(F)cc3)C[C@@H](O)[C@@H](O)C2)n1,-6,0.77
CCOc1cc(N(CC)Cc2ccccn2)ncn1,-9,1.29
CCc1nnsc1C(=O)N1C[C@H](C)OC(C)(C)C1,-3,0.49
CN(C)c1c(Cl)cnn(-c2ccccc2)c1=O,-1,0.24
CNS(=O)(=O)c1cc(C(=O)N2CCc3ccc(C)cc32)c(C)o1,-7,0.7
CCC(=O)Nc1ccc2c(c1)CN(C)C(=O)N2,-3,0.26
O=C(Nc1ccnn1Cc1ccc(Cl)c(F)c1)[C@H]1CCS(=O)(=O)C1,6,-0.83
NC(=O)[C@@H]1CN(C(=O)CN2CCN(Cc3ccccc3)CC2)CCO1,8,-1.59
Cn1nccc1C(=O)N1CC[C@@](F)(c2cccc(C(F)(F)F)c2)C1,3,-0.58
CCCn1nccc1C(=O)N1CCC[C@H](C(=O)c2cccc(OC(C)C)c2)C1,-13,1.82
CCc1c[nH]c2ncnc(NC[C@H](C)N(C)C)c12,-6,1.06
O=S(=O)(Nc1ccc(Br)cc1)C1CCCCC1O (stereo not given),-2,0.22
Cc1ccnn1CCNC(=O)CCc1nc2cc(Br)cnc2[nH]1,31,-3.67
O=c1[nH]c2ccccc2c(O)c1C(c1cccnc1)c1c(O)c2ccccc2[nH]c1=O,-6,1.05
